We go through 30 molecules from the antibiotic and cytotoxicity screens of Wong et al. (2023).

The list shows a part of the results.

One assay relates to HSkMC. Nature of the assay: cytotoxicity call (relative viability < 0.9). The following applies: 10 µM.
Another assay has as its system HepG2. The assay can be described thus: cytotoxicity call (relative viability < 0.9). The settings on record: 10 µM.
A further assay relates to S. aureus RN4220. Nature of the assay: growth inhibition call (relative growth <= 0.2). The settings on record: 50 µM.

As to `COc1ccc([Si](C)(C)[C@H]2[C@H](CCO)O[C@@]3(C(=O)N(Cc4ccccc4)c4ccc(N5C(=O)c6cccc7cccc5c67)cc43)[C@@H]2C)cc1`, the cytotoxicity call in the assay on HSkMC is “inactive”. Besides, the cytotoxicity call in the assay on HepG2 is “active”. In addition, the growth inhibition call in the assay with S. aureus RN4220 was “inactive”.

For the molecule `CCCCCN1CC=C[C@@]23O[C@@H]4C=CCOC(=O)[C@@H]4[C@H]2C(=O)N(CCCO)[C@@H]3C1=O`, the cytotoxicity call in the assay with HSkMC and with HepG2 was “inactive” each time. Also, the growth inhibition call in the assay on S. aureus RN4220 is “inactive”.

Consider `CC1(C)CC(=O)C=C(NCC(=O)O)C1`, for which the cytotoxicity call in the assay on HSkMC and with HepG2 was “inactive” in each case. Further, the growth inhibition call in the assay on S. aureus RN4220 was “inactive”.

With `C[C@H]1CN([C@@H](C)CO)C(=O)Cc2cc(NC(=O)CCCN(C)C)ccc2O[C@@H]1CN(C)Cc1ccc(Oc2ccccc2)cc1`, the cytotoxicity call with HSkMC was “inactive”. Also, in the assay with HepG2, the cytotoxicity call is “active”. Also, in the assay on S. aureus RN4220, the growth inhibition call is “inactive”.

Regarding `Cc1noc(C)c1NC(=O)Nc1ccc2c(c1)C(=O)N([C@@H](C)CO)C[C@H](C)[C@H](CN(C)S(=O)(=O)c1cccs1)OCCCC[C@@H](C)O2`, the cytotoxicity call with HSkMC and with HepG2 was “inactive” each time. Further, the growth inhibition call in the assay on S. aureus RN4220 was “inactive”.

In the case of `C[C@@H]1CN([C@H](C)CO)C(=O)CCCn2nncc2CO[C@H]1CN(C)C(=O)Nc1ccc2c(c1)OCCO2`, the cytotoxicity call with HSkMC and with HepG2 was “inactive” in each case. Further, the growth inhibition call with S. aureus RN4220 is “inactive”.

For the molecule `COc1cc2c(cc1OC)CN(C(=O)[C@@H]1[C@H]3C(=O)O[C@H](c4ccccc4)[C@H](c4ccccc4)N3[C@H](c3ccc(O)cc3)[C@@]13C(=O)Nc1ccc(C#CCCO)cc13)CC2`, the cytotoxicity call with HSkMC and in the assay on HepG2 was “inactive” throughout. The growth inhibition call in the assay with S. aureus RN4220 was “inactive”.

With `CC[N+](CC)(CC(=O)Nc1c(C)cccc1C)Cc1ccccc1.O=C([O-])c1ccccc1`, the cytotoxicity call in the assay with HSkMC and with HepG2 was “inactive” throughout. Moreover, the growth inhibition call with S. aureus RN4220 is “inactive”.

Take `C[C@@H]1CCCCO[C@H](CN(C)CC2CC2)[C@@H](C)CN([C@@H](C)CO)C(=O)c2cc(NS(=O)(=O)c3ccc(Cl)cc3)ccc2O1`: the cytotoxicity call with HSkMC and with HepG2 was “inactive” in each case. For the same molecule, in the assay on S. aureus RN4220, the growth inhibition call was “inactive”.

In the case of `CO[C@H]1CN(C)C(=O)c2ccc(NS(=O)(=O)c3cn(C)cn3)cc2OC[C@@H](C)N(CCC(F)(F)F)C[C@@H]1C`, the cytotoxicity call in the assay on HSkMC and with HepG2 was “inactive” in each case. For the same molecule, the growth inhibition call in the assay on S. aureus RN4220 is “inactive”.

As for `COCC#Cc1ccc([C@H]2[C@H](CO)N3C(=O)CN(C(=O)C4CCOCC4)C[C@@H]23)cc1`, the cytotoxicity call in the assay on HSkMC and in the assay with HepG2 was “inactive” each time. Moreover, the growth inhibition call with S. aureus RN4220 is “inactive”.

For `Cc1[nH]c2ncnn2c(=O)c1CCC(=O)O`, the cytotoxicity call with HSkMC and with HepG2 was “inactive” each time. Besides, the growth inhibition call with S. aureus RN4220 is “inactive”.

Turning to `COCC#Cc1ccc2c(c1)O[C@H](CN(C)S(=O)(=O)c1cccc(F)c1)[C@@H](C)CN([C@H](C)CO)S2(=O)=O`, the cytotoxicity call with HSkMC and with HepG2 was “inactive” in each case. For the same molecule, the growth inhibition call with S. aureus RN4220 was “inactive”.

`Cc1ccc(S(=O)(=O)N(C)C[C@@H]2Oc3c(NS(=O)(=O)c4c(C)noc4C)cccc3C(=O)N([C@H](C)CO)C[C@@H]2C)cc1`: the cytotoxicity call in the assay on HSkMC and in the assay with HepG2 was “inactive” each time. In the assay on S. aureus RN4220, the growth inhibition call was “inactive”.

In the case of `CC(C)NC(=O)N1Cc2cc(C(=O)NC3Cc4ccccc4C3)nc(-c3cccc(-c4cccnc4)c3)c2[C@H]1CCO`, in the assay with HSkMC, the cytotoxicity call is “active”. The cytotoxicity call in the assay with HepG2 is “inactive”. Moreover, the growth inhibition call in the assay with S. aureus RN4220 was “inactive”.

Consider `O=C(O)CCCNC(=O)c1cncc(O)c1`, for which the cytotoxicity call in the assay on HSkMC and in the assay with HepG2 was “inactive” each time. Further, the growth inhibition call in the assay on S. aureus RN4220 is “inactive”.

Regarding `CCCNC(=O)N1C[C@H](O)COC[C@@H]2O[C@H](CC(=O)NCc3ccncn3)CC[C@H]21`, the cytotoxicity call in the assay on HSkMC and with HepG2 was “inactive” in each case. Moreover, the growth inhibition call in the assay on S. aureus RN4220 is “inactive”.

Consider `Cc1cccc(C)c1OCC(C)N.Cl` (stereo not given), for which the cytotoxicity call in the assay on HSkMC is “inactive”. Moreover, in the assay with HepG2, the cytotoxicity call was “active”. Also, the growth inhibition call in the assay with S. aureus RN4220 was “inactive”.

With `C[C@@H]1CN([C@@H](C)CO)C(=O)Cc2cc(NC(=O)C3CC3)ccc2O[C@@H]1CN(C)Cc1ccc2c(c1)OCO2`, the cytotoxicity call in the assay with HSkMC and in the assay on HepG2 was “inactive” throughout. In the assay on S. aureus RN4220, the growth inhibition call is “inactive”.

For `CN1C[C@@H](CO)Oc2ccccc21`, the cytotoxicity call in the assay on HSkMC and in the assay with HepG2 was “inactive” each time. For the same molecule, the growth inhibition call in the assay with S. aureus RN4220 was “inactive”.

With `Cc1noc(C)c1NC(=O)N(C)C[C@H]1Oc2ccc(NS(C)(=O)=O)cc2C(=O)N([C@@H](C)CO)C[C@H]1C`, the cytotoxicity call in the assay with HSkMC and in the assay with HepG2 was “inactive” in each case. In the assay with S. aureus RN4220, the growth inhibition call is “inactive”.

For `C[C@@H]1CN([C@@H](C)CO)C(=O)c2cc(NC(=O)Nc3ccc4c(c3)OCO4)ccc2O[C@@H]1CN(C)S(C)(=O)=O`, the cytotoxicity call in the assay on HSkMC and in the assay on HepG2 was “inactive” throughout. In addition, in the assay on S. aureus RN4220, the growth inhibition call was “inactive”.

On to `C[C@H]1CN([C@@H](C)CO)C(=O)c2cc(NC(=O)Cc3cn(C)c4ccccc34)ccc2O[C@H]1CN(C)S(C)(=O)=O`, for which the cytotoxicity call in the assay with HSkMC and with HepG2 was “inactive” in each case. In the assay with S. aureus RN4220, the growth inhibition call is “inactive”.

Regarding `C[C@@H]1CN([C@H](C)CO)C(=O)c2cc(NC(=O)c3ccccc3)ccc2O[C@@H](C)CCCCO[C@H]1CN(C)C(=O)NC1CCCCC1`, the cytotoxicity call with HSkMC and in the assay on HepG2 was “inactive” throughout. Also, in the assay on S. aureus RN4220, the growth inhibition call was “inactive”.

Regarding `CCC(=O)N(C)C[C@@H]1Oc2ncc(C#C[C@H](C)O)cc2C(=O)N([C@H](C)CO)C[C@@H]1C`, the cytotoxicity call in the assay on HSkMC (human skeletal muscle cells) and in the assay on HepG2 was “inactive” each time. Also, the growth inhibition call with S. aureus RN4220 was “inactive”.

With `C[C@H]1CN([C@@H](C)CO)C(=O)c2cccc(NS(=O)(=O)c3ccc(F)cc3)c2O[C@@H]1CN(C)Cc1ccc(Oc2ccccc2)cc1`, the cytotoxicity call with HSkMC and with HepG2 was “inactive” in each case. In the assay on S. aureus RN4220, the growth inhibition call was “inactive”.

Turning to `COC(=O)[C@@H]1C[C@@H](C#N)N[C@@H]1c1ccccn1`, the cytotoxicity call in the assay with HSkMC and in the assay with HepG2 was “inactive” in each case. The growth inhibition call in the assay with S. aureus RN4220 is “inactive”.

As to `COCC(=O)Nc1c(I)c(C(=O)NC[C@@H](O)CO)c(I)c(C(=O)N(C)C[C@@H](O)CO)c1I`, the cytotoxicity call with HSkMC and in the assay on HepG2 was “inactive” in each case. Besides, the growth inhibition call with S. aureus RN4220 was “inactive”.

`O=C(C[C@@H]1C[C@H]2c3cc(NC(=O)Cc4ccncc4)ccc3O[C@H]2[C@H](CO)O1)NCc1ccc2c(c1)OCO2`: the cytotoxicity call in the assay with HSkMC and in the assay on HepG2 was “inactive” each time. In the assay with S. aureus RN4220, the growth inhibition call is “inactive”.

Consider `C[C@@H]1CN([C@@H](C)CO)C(=O)c2cc(NC(=O)NC3CCCCC3)ccc2O[C@@H]1CN(C)Cc1ccc(Oc2ccccc2)cc1`, for which the cytotoxicity call with HSkMC is “inactive”. Moreover, in the assay with HepG2, the cytotoxicity call was “active”. Besides, in the assay with S. aureus RN4220, the growth inhibition call is “inactive”.
